The source of these data is the supplement of paper PMC11417369.

Some of the results follow.

In the assay the test system is PfSIP2 AP2 domain 1 (GST-tagged). The assay can be described thus: gcPBM binding intensity (ln(normalized median fluorescence intensity)); higher = stronger DNA binding. The essentials: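 Probes on an Agilent 4 × 180k array were primer-extended, double-stranded and 36 bp long, taken from intergenic genomic regions, with negative controls added. GST-tagged P. falciparum DNA-binding domains from E. coli, about 25 μg on average, were applied to the array for 1 h in 1× PBS containing 1% milk, 0.2 mg/ml BSA, 0.5% salmon testes DNA and 0.03% Triton X-100. Binding intensity, obtained after Alexa488 anti-GST antibody detection and a 488 nm scan, is the highest Masliner-normalised natural-log median intensity across replicate spots of either probe orientation.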
With “TGGAGATTTTTAAAGACACACAGGTAAGAATAATAA [CACACA_site1582]”, the “gcPBM binding intensity (ln)” value was 6.99. As to “ACCATTTTTATGTATAAACACACGTACCCGCACTAA [CACACA_site1604]”, the “gcPBM binding intensity (ln)” value came to 8.11. In the case of “AAAAAAAACAGACACATACACACAAAAATGTTATAA [CACACA_site82]” it was 6.84; in that of “AATATATAAATTGACACACACATATATACCTATATA [CACACA_site4803]”, 7.04. As for “AATATAAACACAAACACACACATATAGATTTATATA [CACACA_site6263]”, the figure is 6.99; as for “CACAATGGTTTATATACACACTGTTGCAAATTCTTC [CACACA_site5659]”, 6.92.

For “ATTATGCACGGACACACACACACACCCCTAAAAAAT [CACACA_site5426]”, the “gcPBM binding intensity (ln)” value is 7.88. Regarding “TGTTAACCACAAAAATAAAATAAAATAAAAATAATA [XGTACX_negctrl_site535]”, the “gcPBM binding intensity (ln)” value worked out at 6.89. As for “TGATAAATATTATGTTGTACTTTCTGCCCTTCACAT [XGTACX_site5168]”, the “gcPBM binding intensity (ln)” value stood at 7.09.

In the case of “TTTCCCATAGGAAAAACACACATATATTATAGATAA [CACACA_site7019]”, the “gcPBM binding intensity (ln)” value is 6.91. As for “TATGCTATTATATATGTACACACCAATTTATTTATA [CACACA_site3918]”, the figure is 7.23; as for “GAGAGAGAAATATGCACACATAAGGGAAATAAATAA [CACACA_site1153]”, 7.48; as for “GAAAAAAAAAGTTAAGCACACACATGAATAAATAAT [CACACA_site8179]”, 6.91. As for “TTTTGATGCTTTAAATGTACAAGGGTTCTTATGAAA [XGTACX_site831]”, the figure is 6.97; as for “AAAAAAAAAAAATAGAAAAAAAAATAAAATAAAAAA [CACACA_negctrl_site562]”, 6.74; as for “TGTATATAATTTATATGTACATATATTTTATTTTGT [XGTACX_site1905]”, 7.2. In the case of “AAACCAAAAATAACACGTACAAAAATAAAAAGTATA [XGTACX_site4261]” it was 7.11. For the sequence “AAAACATATTTTAAAAGTACTTGAAAAAAAATTTTC [XGTACX_site3940]”, the “gcPBM binding intensity (ln)” value turned out to be 6.9. In the case of “CATATATATATATGAACACACAAAAAGAATATTTCC [CACACA_site1493]”, the “gcPBM binding intensity (ln)” value turned out to be 7.13. As for “TCTATACCTATTCTTACACACATATGTATTTATATA [CACACA_site4475]”, the figure is 7.25. With “AATTATATTTAGTATATGCACACTTTATGTTTGTTA [CACACA_site2025]”, the “gcPBM binding intensity (ln)” value came to 7.9. As for “GTAGAAAGAAAAATTAGTACTTAAATATTATAAAAA [XGTACX_site8458]”, the figure is 6.79. In the case of “TTCTATGCATTTATAGTGCATGTAAAATATAAGATA [GTGCAC_site9466]” it was 10.9. As for “TTTAAAAAAAAAAAAAATTTTTTTTTTTTTTTTTTA [CACACA_negctrl_site1415]”, the figure is 6.61. Regarding “GACTTTTTCATTTTTAGTACACATATATATTTCCCT [XGTACX_site3511]”, the “gcPBM binding intensity (ln)” value was 7.58. With “AAAAAAAAAAAACATACACACACACTAATATTTATA [CACACA_site8038]”, the “gcPBM binding intensity (ln)” value was 7.14. Regarding “TTAAAAAATCACAACACACACACACCCAAAAAAAAA [CACACA_site1445]”, the “gcPBM binding intensity (ln)” value stood at 7.03.

For “ATATATTTTTAATATGCACACAAGAATACATTCACA [CACACA_site914]”, the “gcPBM binding intensity (ln)” value stood at 9.27. In the case of “TTTTAAAAAATATAATAATATAAATATTTTATACGT [TGCATGCA_negctrl_site252]”, the “gcPBM binding intensity (ln)” value amounted to 6.78. As for “TTCTGTATACGGTGTGCACACAATTAAAAAAAAAAA [CACACA_site1416]”, the “gcPBM binding intensity (ln)” value is 9.47. In the case of “AACATATAAAAATATGCACACACAGGAATACAAACA [CACACA_site8127]” it was 7.68; in that of “TTAAATAACCTCAAGGATAAGAAAAAATTAAAAATT [CACACA_negctrl_site1336]”, 6.54. Regarding CTTTATATATATTGCGTGCACATTTTTTTTTTTTTT, the “gcPBM binding intensity (ln)” value was determined as 9.52.

In the case of “GAAATAATAAAATCGACACACAAAAAAAAAAAAAAA [CACACA_site3476]”, the “gcPBM binding intensity (ln)” value is 6.82. Take “CTATTTAAAATTTGAACACACATTATTTATTTTAAA [CACACA_site3114]”: the “gcPBM binding intensity (ln)” value worked out at 6.9. In the case of “AATAAATACAAAAATGTACACACATATATATATTTT [CACACA_site9167]” it was 6.97; in that of “TCAATATATATAAGAAGTACATGTGAATGAAAAAAA [XGTACX_site1674]”, 7.14; in that of “GGATTTTACCATAGCACACATATATGAATATTTTTC [CACACA_site1814]”, 7.17. For the sequence “TTTATATACTATCAACGTACAAAAGTAATAAAAATA [XGTACX_site4343]”, the “gcPBM binding intensity (ln)” value amounted to 7.27.

Turning to CATTTTATTTTCTTTGTGCACAAAAATATTTTTTCT, the “gcPBM binding intensity (ln)” value was found to be 8.78. Consider “TTGTAACAAAAGTACACACACATTTCTATAAATTTT [CACACA_site2772]”, for which the “gcPBM binding intensity (ln)” value was 7.15. In the case of “AAAGTTATGATATATACACACATATAAATATTAAAT [CACACA_site6361]” it was 6.98. Turning to “TGTTCTAATTTTAATTGTACATATATACATATATAT [XGTACX_site7290]”, the “gcPBM binding intensity (ln)” value was 7.21. In the case of “GTAAATATATATATATATATATATATATATATATAT [GTGCAC_negctrl_site239]” it was 9.48; in that of “TTTTTTTTTTTTTTTTTTTTTTTCTACCTATTTATT [CACACA_negctrl_site94]”, 6.8; in that of “TATGTATATTGAGATTGTACTTGTAATATTAAACAT [XGTACX_site3878]”, 7.11.

Consider “TTGTATAAAATATGTAGTACAATAATATAACATTTT [XGTACX_site8607]”, for which the “gcPBM binding intensity (ln)” value was 7.21. Regarding “AAGGAATAAAATTTAGAAGACAATTTTATTTCAGTA [XGTACX_negctrl_site331]”, the “gcPBM binding intensity (ln)” value amounted to 6.71. In the case of “ATATCAAATAATTTAGTGCACTTTTTTTTTTCTTTT [GTGCAC_site9629]” it was 10.4; in that of “GGTATTTTCACATATAGTACACAAAAATAAAATAAA [XGTACX_site2139]”, 7.79; in that of “TTTATACTTTCAAAATGTACATATATATATATATAT [XGTACX_site6241]”, 9.29. As for “ATTTCTCTATCGTAATGTACAAAAAAAAGGGAAAAG [XGTACX_site1335]”, the figure is 7.11; as for “ATTGAAGGGAAATATATAATCATATTCAAAATAAAA [CACACA_negctrl_site728]”, 6.62; as for “CTAATCATAAAATATACACACACGGATACATTAAAT [CACACA_site2685]”, 7.02. As for “TAATATATAATTTTATGTACATAATTATAAACCCAT [XGTACX_site919]”, the figure is 7.25; as for “AAAAAATACCAAAGGGGTACTTACACATAATACTTA [XGTACX_site2111]”, 6.83.

Turning to “CTTTTTACTTAATACACACACACACCCAAAAAAAAA [CACACA_site948]”, the “gcPBM binding intensity (ln)” value turned out to be 7.57.
